Values joined by “and” are separate entries in the source; they are usually repeats but may differ in a detail not shown here. Equal entries are not always repeated. Hit rate of the full screen: of about 220,000 compounds, about 16,000 (7.3%) were called active. The shares of active, inactive and inconclusive entries below differ from those in the screen. Calls follow the shape of the dose curve; as a rule, active = well fitted inhibition curve with a large enough effect (not every such curve was filed as active); inconclusive = small, poorly fitted or top-dose-only effect, or another doubt; inactive = no such curve, though single readings can be large or run the other way. No potency is given beside an inconclusive call; the fits are too rough. Some compounds were tested as several samples or in several runs, with calls that do not always agree.
The compounds below were run against Aldehyde dehydrogenase 1A1 (Homo sapiens) (UniProt P00352) (assay: qHTS Assay for Inhibitors of Aldehyde Dehydrogenase 1 (ALDH1A1)). Settings: Purified ALDH1A1, NADH fluorescence, propionaldehyde substrate; series mostly up to 75.3 µM.
Sequence of UniProt P00352 (P00352 whole entry, looked up): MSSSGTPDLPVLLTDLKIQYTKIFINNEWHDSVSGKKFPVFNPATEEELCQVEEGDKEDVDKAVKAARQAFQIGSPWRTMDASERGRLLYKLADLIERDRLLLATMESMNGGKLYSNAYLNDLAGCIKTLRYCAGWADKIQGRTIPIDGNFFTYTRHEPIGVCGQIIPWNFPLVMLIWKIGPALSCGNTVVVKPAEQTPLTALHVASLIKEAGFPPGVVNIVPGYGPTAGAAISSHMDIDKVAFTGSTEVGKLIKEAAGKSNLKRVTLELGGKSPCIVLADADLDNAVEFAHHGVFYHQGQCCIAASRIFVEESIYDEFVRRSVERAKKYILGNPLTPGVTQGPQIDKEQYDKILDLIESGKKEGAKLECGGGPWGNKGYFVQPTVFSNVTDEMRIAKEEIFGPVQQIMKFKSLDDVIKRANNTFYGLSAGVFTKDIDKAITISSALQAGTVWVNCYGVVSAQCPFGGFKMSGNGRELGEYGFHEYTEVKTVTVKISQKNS
Potency is read from the fitted curve at half-maximal effect; tags tell the direction and shape of the fitted curve.

SMILES	Potency
S=C(NCCOCCOCCNC(=S)Nc1ccccc1)Nc1ccccc1	active: 12.6 µM
CSc1sc(C(=O)NNC(C)=O)c2c1C1(CCC2)SCCS1	inconclusive [inhibitor, single point]
O=C(O)c1ccccc1/C=N/NC(=S)NCc1ccccc1	inactive
CCn1c(C(c2ccccc2)c2ccccc2)n[nH]c1=S	inconclusive [inhibitor, single point]
Cc1ccc(S(=O)(=O)N2CCN(C(=O)CSc3nc4ccccc4c(=O)[nH]3)CC2)c(C)c1	inconclusive [inhibitor, partial curve]
COc1ccc(CCNC(=O)CCCn2c(SCC(N)=O)nc3cc4c(cc3c2=O)OCO4)cc1OC	inactive
CCOC(=O)Cn1nc(C)cc1NC(=O)c1cccnc1	inactive
CC1(O)C(=O)c2ccccc2N(c2ccccc2)C1=O (stereo not given)	inconclusive [inhibitor, single point]
S=c1[nH]nc(COc2ccccc2)n1/N=C/c1ccco1	inconclusive [inhibitor, single point]
O=c1c2cnn(-c3ccccc3)c2nnn1Cc1ccccn1	inconclusive [inhibitor, single point]
O=C(NCCC1=CCCCC1)C1CCN(S(=O)(=O)N2CCOCC2)CC1	inconclusive [inhibitor, single point]
O=c1[nH]c(Cc2cccs2)nc2scc(-c3ccc(Cl)cc3)c12	inactive
O=C(COC(=O)c1ccccn1)Nc1cccc(Cl)c1Cl	inconclusive [inhibitor, single point]
O=C(NCCN1CCOCC1)c1ccc(CS(=O)(=O)Cc2ccccc2F)o1	inconclusive [inhibitor, single point]
COc1ccc(-c2nc(C#N)c(NCc3ccc(F)cc3)o2)cc1OC	inconclusive [inhibitor, partial curve]
CN(C)c1ccc(C2N([C@H](C#N)c3ccc(N(C)C)cc3)CCCN2[C@@H](C#N)c2ccc(N(C)C)cc2)cc1 (stereo not given in full)	active: 1 µM
CCOc1ccc(-c2cc3nc(C4CCN(C(=O)OC(C)(C)C)CC4)c(C(=O)O)cn3n2)cc1	inconclusive [inhibitor, partial curve]
CCC(=O)c1ccc(OCc2ccc(C(=O)OC)o2)c(OC)c1	inconclusive [inhibitor, single point]
CCN(CC)S(=O)(=O)c1ccc(OC)c(NC(=O)CSc2cc(Cl)ccc2Cl)c1	inactive
Cc1noc(C)c1COC(=O)c1cc(=O)[nH]c2ccccc12	inconclusive [inhibitor, single point]
CCOc1ccc(N2CC(C(=O)OCC(=O)NCc3ccccc3)CC2=O)cc1 (stereo not given)	inactive
COc1ccc(C(C(=O)NC(C)(C)C)N(CC2CCCO2)C(=O)CCC(=O)Nc2cc(C)on2)cc1 (stereo not given)	inactive
CCn1c(=O)n(CC)c2cc(N)ccc21	inconclusive [inhibitor, single point]
Cc1cc2nc(-c3cccnc3SCC(=O)NC3CC3)[nH]c2cc1C	inconclusive [inhibitor, single point]
CC1CCCCN1C(=O)CSc1nc(-c2ccccc2)cc(=O)[nH]1 (stereo not given)	inconclusive [inhibitor, single point]

SMILES	Potency
CC(C)=CC(=O)OCc1cc([N+](=O)[O-])cc2c1OCOC2	inconclusive [inhibitor, single point]
CC12CN3CC(C)(CN(C1)C3c1c[nH]c3ccccc13)C2=O (stereo not given)	inactive
C[C@@H](C(=O)Nc1ccc2ccccc2c1)[C@@H]1C[C@@]1(C)[C@@H](NC(=O)c1cccnc1)c1ccccc1	inactive and active: 22.4 µM
C=CCNC(=O)c1ccc(C2SCC(=O)N2Cc2ccccc2)cc1 (stereo not given)	inconclusive [inhibitor, single point]
Cn1c(=O)n(C)c2cc([N+](=O)[O-])c(N3CCN(C(=O)c4ccccc4Br)CC3)cc21	inconclusive [inhibitor, partial curve]
COc1cc(NC(=S)NCCCN2CCOCC2)c(OC)cc1Cl	inactive
O=C(CCl)N(C/C=C/c1ccccc1)c1ccc2c(c1)OCCO2	active: 0.794 µM
C=CCNC(=O)c1cc2c(=O)n3cc(C)ccc3nc2nc1NCC1CCCO1 (stereo not given)	inconclusive [inhibitor, partial curve]
COc1cccc2c(=O)c3cccc(N)c3[nH]c12	inactive
Cc1cc(Cl)ccc1OCC(=O)N/N=C1\CC2C=CCC12 (stereo not given)	inactive
CCOC(=O)NCN1C(=O)C2C3C=CC(C3)C2C1=O (stereo not given)	inconclusive [inhibitor, single point]
COc1ccc(C2CC(=O)C3=C(C2)NC(C)=C(C(=O)Nc2ccccc2C)C3c2coc3ccc(C)cc3c2=O)cc1OC (stereo not given)	inconclusive [inhibitor, partial curve]
O=C(NC(=S)NNC(=O)c1ccccc1O)c1cccnc1	inconclusive [inhibitor, single point]
O=S1(=O)N=C(Oc2cccc3ccccc23)c2ccccc21	inconclusive [inhibitor, single point]
CCC1CCCCN1CCNC(=O)C1CCN(S(=O)(=O)c2c(C)noc2C)CC1 (stereo not given)	inactive
CCc1nnc(SCc2cn3c(C)cc(C)nc3n2)n1N	inconclusive [inhibitor, partial curve]
Cc1ccc(C(=O)C[n+]2cc(-c3ccc(C)cc3)n3c2CCCCC3)cc1	inactive
COc1cccc(/C=N/NC(N)=S)c1OS(=O)(=O)c1ccccc1	inconclusive [inhibitor, full curve]
Cc1onc(-c2c(Cl)cccc2Cl)c1CO/N=C(\C#N)c1c(Cl)cccc1Cl	inconclusive [inhibitor, partial curve]
COc1cccc(NC(=O)CSc2nnc(C)s2)c1	inactive
CC(N)(C(=O)O)c1ccc(-c2nn[nH]n2)cc1 (stereo not given)	inactive
CC1CCCN(Cc2c(O)ccc3c2O/C(=C\c2ccco2)C3=O)C1 (stereo not given)	inconclusive [inhibitor, single point]
O=C1c2ccccc2C(Nc2ccc(Cl)cn2)N1Cc1ccccc1 (stereo not given)	active: 12.6 µM
Cc1ccc(S(=O)(=O)N/N=C\C=C\c2ccccc2)cc1	inconclusive [inhibitor, single point]
COc1cccc(-c2ccc(SCc3ccccn3)nn2)c1	inactive

SMILES	Potency
Cc1ccc(Cl)c(OCCCCN(C)Cc2ccccc2)c1	inactive
CCOC(=O)/C(C#N)=C1\CC2CCC1(C)C2(C)C (stereo not given)	active: 12.6 µM
CCN1CCc2c(sc(NC(=S)NC(=O)c3ccc(Cl)cc3)c2C(N)=O)C1	active: 10 µM
Oc1ccc(/C=N\Nc2cc(N3CCOCC3)nc(N3CCOCC3)n2)c(O)c1	inactive
CCCCCCN=CC1=C(O)CC(C)(C)CC1=O	inconclusive [inhibitor, partial curve]
CCN(CC)C(=O)CSc1nc2sc(C)c(C)c2c(=O)[nH]1	inconclusive [inhibitor, single point]
COc1ccc2[nH]c3c(=O)n(Cc4ccc(C(=O)N5CCC(C(N)=O)CC5)cc4)c(=S)[nH]c3c2c1	inconclusive [inhibitor, single point]
Cc1cc(=O)oc(C)c1C(=O)NCc1ccccn1	inconclusive [inhibitor, single point]
CN(C)S(=O)(=O)c1ccc(C(=O)Nc2ccc(CCC(=O)N3CCCC3)cc2)cc1	active: 22.4 µM
CC(C)(C)C(=O)COC(=O)c1cc(-c2cccnc2)nc2ccccc12	inconclusive [inhibitor, partial curve]
CCC(=O)N(CCC(Cc1ccccc1)c1ccc2c(c1)OCO2)Cc1ccccc1F (stereo not given)	inconclusive [inhibitor, partial curve]
CCC(Sc1nc2c(cnn2-c2ccccc2)c(=O)[nH]1)C(=O)OC (stereo not given)	inconclusive [inhibitor, full curve, poor fit]
CC1=NN(c2ccccc2)C(=O)C1C(=O)C(=O)Nc1ccc(F)cc1 (stereo not given)	inconclusive [inhibitor, single point]
COCCNC(=S)NNC(=O)CSCc1ccc(Cl)cc1Cl	inconclusive [inhibitor, partial curve]
Cc1noc(C)c1C(=O)OC(C(=O)NC1CCCC1)c1ccc(F)cc1 (stereo not given)	inactive
O=C1/C(=C/c2c[nH]c3ccccc23)CCC/C1=C\c1c[nH]c2ccccc12	active: 1.26 µM
C#CCNc1nc(C)nc2c1nnn2Cc1ccccc1F	active: 11.2 µM
COc1ccc(/C=C/C2=CC(C)(C)NC(=S)N2)cc1OC	active: 7.94 µM
CN(C)/C=C/C(=O)c1ccc(Oc2ccccc2)cc1	inconclusive [inhibitor, single point]
Cc1ccc2oc(=O)c3cc(C(=O)NCCN4CCc5ccccc5C4)sc3c2c1	active: 28.2 µM
COCCNC(=S)N/N=C/c1ccccc1C(=O)O	inactive
Cc1noc(C)c1COC(=O)c1ccccc1Sc1ccccc1C#N	inconclusive [inhibitor, partial curve]
CC(C)c1nc(SCC(=O)N2CCOCC2)c2c(=O)n(C)c(=O)n(C)c2n1	inactive
COc1ccccc1Nc1nccc(N(C)C)c1C#N	inactive
COc1cc(NS(=O)(=O)c2ccc(N/C=C\C(=O)c3ccc(OC)c(OC)c3)cc2)nc(OC)n1	inconclusive [inhibitor, partial curve]
